PubChem BioAssay AID1963576 (National Center for Advancing Translational Sciences (NCATS), 2024)
In all, about 46,000 compounds went through this assay and about 60 (0.1%) were called active. About 3% were inconclusive and are not listed. The call rests on the fitted dose curve; in most records, active means well fitted inhibition curve with a large enough effect; inconclusive means small, poorly fitted or top-dose-only effect; inactive means no such curve, though single readings can be large or run the other way. Some of the results follow.

experiment: Primary qHTS assay for Inhibitors of ovarian cancer metastasis using an organotypic tumor microenvironment (TME) model.; further: nearly all actives have a fitted effect of over 65% in size;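 on activity change, negative = inhibition: plate controls were DMSO wells for no effect and tomatine positive control wells for full effect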; conditions: SKOV3ip1-GFP adhesion/invasion on 3D omental model, fluorescence; series mostly up to 45.8 µM; activity change, negative = inhibition: at the top concentration
In short: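 qHTS, 4-pt dose (0.36-46 umol/L); SKOV3ip1-GFP, 1,200 cells/well, no FBS; primary omental fibroblast/mesothelial co-culture 48 h pre-grown; 2 h RT + 16 h 37 C; PBS wash, 4% PFA; GFP count 488/509 nm.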

Activity change, negative = inhibition, inactive:
COc1ccccc1CNC(=O)c1cc(-c2ccccc2)n[nH]1 -8.17%
CCOc1ccccc1NC(=O)CN1C(=O)C(=O)c2ccccc21 8.5%
CC(C)NC(=O)c1sc2ncccc2c1-n1cccc1 -1.98%
CCCc1cc(=O)oc2cc(C)c3c(-c4ccccc4)c(C)oc3c12 8.68%
CCOc1ccccc1N(CC)C(=O)c1cc2ccc3cccnc3c2[nH]1 -1.82%
CCc1ccc(S(=O)(=O)c2cnc(SCC(=O)Nc3ccc(OC)cc3OC)[nH]c2=O)cc1 3.69%
Cc1ccc2nc(NC(=O)CSc3ncc(C(=O)Nc4ccccc4)c(=O)n3C)sc2c1 0.306%
Cc1ccc(N2C(=O)C(CC(=O)Nc3ccccc3)N(CCC3=CCCCC3)C2=O)cc1 (configuration not stated) 0.94%
O=C(NCCCN1CCN(c2cccc(Cl)c2)CC1)c1nnc(Cc2ccc(F)cc2Cl)o1 -15.6%
CCOc1ccc(CCNC(=O)c2sc3nc4n(c(=O)c3c2C)CCCC4)cc1 9.05%
O=C(O)C1=CC(c2ccc(Br)cc2)n2ncnc2N1 (configuration not stated) -17.7%
Cc1ccccc1C(=O)NCc1ccc2c(c1)CCN2C(=O)c1ccc(F)cc1 -3.07%
CC1CCC(NC(=O)CCc2cn(Cc3ccc(F)cc3)c3ccccc23)CC1 (configuration not stated) 0.982%
CCOC(=O)Cn1cnc2c(cnn2-c2ccc(C)c(C)c2)c1=O 1.06%
CCS(=O)(=O)c1nc(S(=O)(=O)c2ccc(C)cc2)c(NCc2ccccc2Cl)s1 -1.82%
CCOC(=O)CSc1ncnc2c1c(-c1ccccc1)cn2-c1ccc(OC)cc1 0.336%
COc1cc2c(cc1OC)C(COc1ccc(C(C)C)cc1)N(C(=O)COc1ccccc1)CC2 (configuration not stated) -27.6%
COc1ccc(NC(=O)CC2C(=O)N(c3ccc(C)cc3)C(=O)N2C2CCCC2)cc1 (configuration not stated) -19.6%
COc1ccc(CCNC(=O)CCCn2c(=O)c3cccn3c3ccc(F)cc32)cc1OC 9.83%
CCOc1ccc(Nc2nc(Nc3ccc(OCC)cc3)nc(N3CCOCC3)n2)cc1 -7.51%
CCc1cccc(NC(=O)c2coc(=O)c3ccccc23)c1 6.19%
COC(=O)c1ccc(Cl)cc1NC(=O)N1CCC(CN2CCC(C)CC2)CC1 8.36%
COc1cccc(NC(=O)c2oc3ccccc3c2NC(=O)Cc2cccc(C)c2)c1 -0.396%
CC(NC(=O)c1cc2ccccn2n1)c1ccccc1 (configuration not stated) -3.76%
COC(=O)CN1C(=O)C(C)(C)c2cc(S(=O)(=O)Nc3ccc(C(C)C)cc3)ccc21 -0.49%
O=C(COc1ccc(Br)cc1)Nc1cccc2cccnc12 2.47%
Cc1ccccc1OCC(=O)N(Cc1ccc(C(C)C)cc1)C1CCS(=O)(=O)C1 (configuration not stated) -17.5%
O=C(NCc1ccc(Cl)cc1)c1cc(-c2ccc(F)cc2)on1 2.82%
CCOc1ccc(S(=O)(=O)n2nc(C)c(S(=O)(=O)N3CCCCC3)c2C)cc1 -0.766%
O=C(Nc1ccc(Cl)cc1C(F)(F)F)c1cc(S(=O)(=O)N2CCOCC2)ccc1F 1.47%
COc1cc(CN2CCc3nc(N4CCN(c5ccccn5)CC4)ncc3C2)cc(OC)c1OC 3.73%
COc1ccc(C(=O)Nc2cc3c(cc2N2CCCC2)n(C)c(=O)c(=O)n3C)cc1OC 6.83%
CCCC(=O)n1nc(-c2cccnc2)nc1NCc1ccc(OC)cc1 1.88%
COC(=O)c1ccccc1NS(=O)(=O)c1ccc2c(c1)CCCN2C(C)=O 4.08%
CC(=O)c1cc(-c2ccccc2)n(CCC(=O)NC(C)c2ccccc2)c1C (configuration not stated) 9.29%
CC(C)(C)OC(=O)N1CCC(c2c(C(=O)NCc3ccco3)cnn2-c2ccccc2Cl)CC1 9.4%
O=C(Nc1ccc(Br)cc1)C(Cc1ccccc1)NS(=O)(=O)c1cccc2nsnc12 (configuration not stated) 9.01%
Fc1ccc(-n2ncc3c(NCCC4=CCCCC4)ncnc32)cc1 -3.72%
Cc1cccc(C)c1NC(=O)Cn1c(=O)n(Cc2ccc3c(c2)OCO3)c(=O)c2oc3ccccc3c21 6.87%
CCOc1cc(C(=O)Nc2ccc(-c3nc4ccccc4s3)cc2Cl)cc(OCC)c1OCC 2.68%
CC(C)(C)c1ccc(C(=O)NCC(c2cccs2)S(=O)(=O)c2cccs2)cc1 (configuration not stated) -2.7%
CCc1ccc(-n2nc3cc(C)c(NC(=O)c4cc(OC)cc(OC)c4)cc3n2)cc1 1.06%
Cc1cc(C)c2c(CC(=O)Nc3ccc(S(=O)(=O)N4CCCCC4)cc3)coc2c1 -7.17%
O=C(c1cc2ccccc2oc1=O)N1CCN(c2ccc(F)cc2)CC1 -8.99%
COc1ccccc1CCNC(=O)Cc1c(C)c2cc3c(C)coc3cc2oc1=O 0.301%
CC(C)c1ccc2oc3nc(N)c(C(=O)O)cc3c(=O)c2c1 7.88%
Cc1cccc(CSCc2ccc(C(=O)NCCc3ccccc3)o2)c1 8.96%
CCOC(=O)c1ccc(Nc2c(-c3cccc(O)c3)nc3nc[nH]n23)cc1 2.93%
N#Cc1c(-n2ncnc2-c2ccccc2C(F)(F)F)sc2c1CCCCC2 -21.5%
CC(=O)c1ccc(NC(=O)CN(C)S(=O)(=O)c2cc3c(cc2Cl)NC(=O)CO3)cc1 -2.89%
CCN(CC)CCN(C(=O)c1ccco1)c1nc2cc(C)cc(C)c2s1 0.175%
Nc1c(-c2nc(-c3ccccc3)no2)nnn1CC(=O)Nc1cccc(F)c1 5.92%
COc1cccc(C2=NS(=O)(=O)N(C)C(C(=O)Nc3ccccc3SC)=C2)c1 -0.459%
O=C(NCc1cccs1)c1ccc(CSc2nc3ccncc3n2Cc2ccccc2)cc1 -12.8%
COc1cc(NC(=O)CNS(=O)(=O)c2cccs2)cc(OC)c1OC 19.2%
Fc1ccc(CSc2nc(NCc3ccccc3)c3ccccc3n2)cc1 6.59%
COc1ccc(-c2cc(C(=O)Nc3cccc(O)c3)on2)cc1OC 1.84%
Cc1ccc(Cl)cc1N1CCN(CCCNC(=O)C2COc3ccccc3C2)CC1 (configuration not stated) -3.15%
CCOC(=O)c1ccc(NC(=O)Cn2c(=O)cc(C(F)(F)F)c3c(C)nn(C)c32)cc1 0.329%
CCN(CC)c1ccc2cc(-c3nc(-c4ccccc4F)no3)c(=O)oc2c1 -1.13%
Cc1cc(C)c(S(=O)(=O)Nc2ccc(-c3ccc(N4CCCCCC4)nn3)cc2)cc1C -0.348%
Cc1cccc(NC(=O)CSc2nc3c(sc4ccccc43)c(=O)n2CCCC(=O)NC2CCCC2)c1 -5.01%
C[C@@H]1CC=CC=CC=CC=C[C@@H](O[C@@H]2O[C@H](C)[C@@H](O)[C@H](N)[C@H]2O)C[C@@H]2O[C@](O)(C[C@@H](O)C[C@@H]3O[C@@H]3C=CC(=O)O1)C[C@H](O)[C@@H]2C(=O)O 15.7%
COc1cccc(NC(=O)c2oc3ccccc3c2NC(=O)c2cc3ccccc3o2)c1 -12%
CCOC(=O)C1CCCN(c2ncnc3c2nnn3C)C1 (configuration not stated) -6.02%
COc1cccc([C@@H](C)NCCCc2ccccc2Cl)c1 -14.5%
CC(=O)c1ccc(NC(=O)Cn2c(=O)nc(-c3ccccc3)c3cc(Cl)ccc32)cc1 -7.65%
O=C(Nc1cccc(C(F)(F)F)c1)c1ccc2snnc2c1 15.4%
CCc1ccc(NC(=O)Nc2nnc(N(C)C3CCCCC3)s2)cc1 9.99%
CCOc1ccc(CCNC(=O)c2cc3c(s2)-c2c(C)cccc2OC3)cc1 -11%

outcome, inactive:
Cn1c2ccc(F)cc2c2nnc(SCCN3CCCCC3)nc21
O=C(O)Cn1nc(N2CCN(c3ccccc3)CC2)ccc1=O
Cc1sc2c(c1C)c(=O)n(Cc1ccccc1)c(=O)n2CC(=O)Nc1cccc(Cl)c1
Cc1nn2c(=O)cc(COC(=O)COc3ccccc3C)nc2s1
COc1ccc(N2CC(NC(=O)c3ccc(S(=O)(=O)N4CCOCC4)cc3)CC2=O)cc1 (configuration not stated)
COc1ccccc1NC(=O)C1CCN(c2ncnc3c2nc2n3CCCCC2)CC1
CCOc1ccc(C(=O)c2cn(CC(=O)Nc3ccc(C)c(C)c3)c3ccc(OCC)cc3c2=O)cc1
COc1ccc(OCC(=O)N2CCN(C(=O)c3ccc(OC)cc3)CC2)cc1
Cc1cn2c(=O)cc(COC(=O)C(C)Oc3ccccc3)nc2s1 (configuration not stated)
Cc1ccc(C)c(CN2C(=O)C(O)(c3c[nH]c4ccccc34)c3ccccc32)c1 (configuration not stated)
CCc1ccc(-n2nc(CO)c(C(=O)NCCCCc3ccccc3)n2)cc1
Cc1nn(CCCC(=O)NCc2ccccc2)c(=O)c2cc3sccc3n12
COc1ccccc1NC(=O)Cn1nc(-c2ccc(C)cc2)c2c(c1=O)CCCC2
CCOc1ccc(OCC)c(NC(=O)C(NS(=O)(=O)c2cccs2)c2ccccc2)c1 (configuration not stated)
COc1ccc(C(=O)Nc2cc(S(=O)(=O)c3ccc(Cl)cc3)c(O)c(C)c2C)cc1
Cc1ccc(CNC(=O)c2c(C)oc3nc(C)nc(N4CCOCC4)c23)cc1
CCOc1cc(-c2ccc(OC(=O)c3ccc(C)cc3)c(OC)c2)cc(=O)c2c(C)oc(C)c12
Cc1ccc(C)c(Cn2c(=O)n(Cc3ccccc3)c(=O)c3c2c2cc(C)ccc2n3C)c1
CCOc1ccc(S(=O)(=O)NCCc2csc3nc(-c4ccc(F)cc4)nn23)cc1
CC1CCC(NC(=O)c2ccc(CS(=O)(=O)c3cccc(C(F)(F)F)c3)o2)CC1 (configuration not stated)
COc1ccc(CNC(=O)Cn2c(=O)cc(C)c3c(C)nn(-c4cccc(Cl)c4C)c32)cc1
Cc1ccc(C(=O)Nc2ccc(S(=O)(=O)Nc3onc(C)c3C)cc2)cc1
COc1cc(NC(=O)NCCN2CCN(c3ccccc3)CC2)cc(OC)c1OC
Cc1ccc(N(C)C(=O)CCS(=O)(=O)c2cc3c(cc2Cl)NC(=O)CO3)cc1
COc1ccc(C(=O)NCCn2cc(SC(C)c3ccccc3)c3ccccc32)cc1OC (configuration not stated)
Cc1cccc(C(=O)Nc2ccc(S(=O)(=O)N(Cc3ccccc3)c3ccccc3)cc2)c1
Cc1cccc(N2CCN(C(=O)C3CCN(c4ncnc5c4nc4n5CCCCC4)CC3)CC2)c1C
